About 2,200 (0.71%) of roughly 310,000 compounds showed an effect of 50% or more. Effects have a minus sign here. The list shows a part of the results.
What follows are compounds tested against human ether-à-go-go-related gene (hERG) potassium channel (human, UniProt Q12809) (assay: primary screen, population patch clamp on CHO cells stably expressing hERG).
Sequence of human ether-à-go-go-related gene (hERG) potassium channel (Q12809 whole entry, looked up): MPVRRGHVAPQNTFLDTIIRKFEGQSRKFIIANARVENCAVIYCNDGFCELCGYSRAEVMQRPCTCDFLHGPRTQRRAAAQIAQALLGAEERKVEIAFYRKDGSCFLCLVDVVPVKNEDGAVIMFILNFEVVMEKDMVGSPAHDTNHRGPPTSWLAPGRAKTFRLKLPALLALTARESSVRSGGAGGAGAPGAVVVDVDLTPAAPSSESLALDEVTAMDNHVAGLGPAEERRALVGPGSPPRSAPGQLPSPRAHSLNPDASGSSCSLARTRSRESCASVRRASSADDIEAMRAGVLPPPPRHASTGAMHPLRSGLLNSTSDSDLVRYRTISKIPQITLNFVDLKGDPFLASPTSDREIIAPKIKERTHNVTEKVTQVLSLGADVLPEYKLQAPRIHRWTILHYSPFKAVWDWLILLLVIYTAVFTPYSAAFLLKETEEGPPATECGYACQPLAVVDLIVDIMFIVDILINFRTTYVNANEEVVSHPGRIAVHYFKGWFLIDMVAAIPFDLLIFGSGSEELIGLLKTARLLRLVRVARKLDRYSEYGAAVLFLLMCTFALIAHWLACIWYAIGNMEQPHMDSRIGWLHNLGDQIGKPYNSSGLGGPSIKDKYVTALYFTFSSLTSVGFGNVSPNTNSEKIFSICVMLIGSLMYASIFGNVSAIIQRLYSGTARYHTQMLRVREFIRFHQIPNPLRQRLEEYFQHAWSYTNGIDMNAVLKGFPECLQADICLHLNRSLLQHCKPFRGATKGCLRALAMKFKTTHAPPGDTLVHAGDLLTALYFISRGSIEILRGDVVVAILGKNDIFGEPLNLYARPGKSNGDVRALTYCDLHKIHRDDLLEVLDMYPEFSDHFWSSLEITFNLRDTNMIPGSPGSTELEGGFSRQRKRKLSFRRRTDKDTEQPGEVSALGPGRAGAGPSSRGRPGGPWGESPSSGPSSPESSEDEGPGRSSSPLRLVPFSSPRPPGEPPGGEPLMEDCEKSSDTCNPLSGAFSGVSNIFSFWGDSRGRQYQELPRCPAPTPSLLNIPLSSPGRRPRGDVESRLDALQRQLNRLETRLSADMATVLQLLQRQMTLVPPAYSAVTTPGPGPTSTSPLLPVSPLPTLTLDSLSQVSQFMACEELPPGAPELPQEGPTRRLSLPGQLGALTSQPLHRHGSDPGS

Structure (SMILES) | hERG current change (%, negative = inhibition) at 1uM [%]
Cn1c(-c2ccncc2)nc2ccccc21 | 8.49
O=C(Nc1ccccc1N1CCN(C(=O)c2ccc(Cl)cc2)CC1)c1cccc([N+](=O)[O-])c1 | -65.2
N/C(=N\OC(=O)C(c1ccccc1)c1ccccc1)c1ccccn1 | 6.77
COc1ccc(N2C(=O)[C@@H]3Cc4ccccc4CN3C2=O)cc1 | 2.02
COCCNC(=O)c1c(N)n(CCC(C)C)c2nc3ccccc3nc12 | 3.8
CCOc1ccc(-n2nnc3c(=O)n(CC(=O)N4CCCc5ccccc54)cnc32)cc1 | -2.55
O=C(NCc1ccccn1)c1ccc(OC2CCN(Cc3ccc(F)cc3F)CC2)cc1 | 0.219
C/C=C(\C)c1nnc(NC(=O)OCC)s1 | 10.7
CCOP(=O)(OCC)/C(=N/OC(=O)c1cccc([N+](=O)[O-])c1)C(N)=O | 13
COc1ccccc1CC(=O)Nc1c[nH]c(=O)[nH]c1=O | 29.3
O=C(N[C@@H]1CCC(=O)N(CC[C@H](Sc2ccccc2)c2ccccc2)CC1)OCc1ccccc1 | 5.88
CCOC(=O)C1(Cc2cccc(OC)c2)CCN(C(C)CC(C)(C)O)CC1 (centres unmarked) | 3.09
Cc1ccc(F)cc1CNC(=O)C1CCC(=O)N(C2CC2)C1 (centres unmarked) | 3.79
O=C(CCN1C(=O)/C(=C/c2ccccc2Cl)SC1=S)NNC(=O)c1cccnc1 | 16
O=C1NC(=O)C(=Cc2csc3ccccc23)C(=O)N1 | 5.51
Cc1cccc(Nc2nnc(SCC3CCCCO3)s2)c1 (centres unmarked) | 6.7
O=C(O)C1C2C=CC(O2)C1C(=O)NCc1ccc(Cl)cc1 (centres unmarked) | 8.47
CCCc1cc(N2CCN(C(=O)c3ccco3)CC2)n2c(nc3ccccc32)c1C#N | -39.4
CC1Cc2cc(/C(O)=C3\C(=O)C(=O)N(Cc4ccncc4)C3c3ccccc3F)ccc2O1 (centres unmarked) | 17.9
Cc1cc(F)ccc1S(=O)(=O)Nc1ncnc2scc(-c3ccc(F)cc3)c12 | 12.6
O=C(CSc1nc2[nH]ncc2c(=O)[nH]1)N1CCCC1 | 10.4
CCOP(=O)(c1ccc(N(C)C)cc1)C(O)c1ccccc1OC (centres unmarked) | 5.04

Structure (SMILES) | hERG current change (%, negative = inhibition) at 1uM [%]
COc1ccc(NC(=O)CN2CCC(C(N)=O)CC2)cc1 | 2.62
Cc1ccn2c(C(=O)N/N=C\c3cccs3)c(C)nc2c1 | 5.01
CC1Cc2ccccc2N1C(=O)COC(=O)c1c2c(nc3ccccc13)CCCCC2 (centres unmarked) | 12
COc1cc(NS(=O)(=O)c2ccc(NS(=O)(=O)c3ccc(NC(C)=O)cc3)cc2)nc(OC)n1 | 18.3
FC(F)(F)c1cc(Sc2ccccc2)nc(-c2ccccn2)n1 | -1.68
S=C1NCCOCCOCCOCCNC(=S)N2CCOCCOCCN1CCOCCOCC2 | 14.6
CC(Nc1cccc2ccccc12)C(=O)N/N=C/c1ccccn1 (centres unmarked) | 11.1
CCOCCn1c(SCc2c(F)cccc2Cl)nc2c1c(=O)[nH]c(=O)n2C | 4.9
COc1ccccc1NC(=O)COc1ccc(-c2nn(C)c(=O)c3ccccc23)cc1 | 1.15
CN(C)c1nc(N)c([N+](=O)[O-])c(NCCO)n1 | 12.4
COc1ccccc1NC(=O)C1CC(=O)N(c2ccc(F)cc2)C1 (centres unmarked) | 7.67
COc1ccccc1C(=O)NC(=S)Nc1cccnc1Cl | 4.44
Brc1cccc(-c2nc3cccnc3nc2-c2cccc(Br)c2)c1 | 20.2
Cc1cccc(NC(=S)N2CCC(N(C)CC3CCCO3)CC2)c1 (centres unmarked) | -9.04
CCCCC(c1nnnn1C1CCCC1)N1CCN(C(=O)c2ccco2)CC1.Cl (centres unmarked) | -13.5
CC(C)CN(C1CCS(=O)(=O)C1)S(=O)(=O)c1ccc2ccccc2c1 (centres unmarked) | -4.27
CNC(=O)O/N=C/c1nn(C(=O)C(C)(C)C)cc1Br | 11.8
N=C1/C(=C\c2coc3ccccc3c2=O)C(=O)N=C2SC(c3ccncc3)=NN12 | 6.88
CC(=O)Nc1ccc(NC(=O)C(C)Sc2n[nH]c(-c3cccs3)n2)cc1 (centres unmarked) | 3.43
COc1ccc(-c2cc(=O)oc3cc(OCC(=O)N[C@@H](Cc4c[nH]c5ccccc45)C(=O)O)ccc23)cc1 | -9.39
COc1cc(/C=N/N(C)C)ccc1OC(=O)c1cccs1 | 12.8
OCCCc1nc2n(n1)C(c1ccccc1)C=C(c1ccccc1)N2 (centres unmarked) | 1.51
